Experimental data from the supplement of paper PMC12217912.
The other results are listed elsewhere or left out. The full chains were built here from the parent and the listed change. Inactive controls read about 0.05.

B1: TEV protease; numbered along this chain (parent)
chain: MGESLFKGPRDYNPISSSICHLTNESDGHTTSLYGIGFGPFIITNKHLFRRNNGTLVVQSLHGVFKVKDTTTLQQHLVDGRDMIIIRMPKDFPPFPQKLKFREPQREERICLVTTNFQTKSMSSMVSDTSCTFPSGDGIFWKHWIQTKDGQCGSPLVSTRDGFIVGIHSASNFTNTNNYFTSVPKNFMELLTNQEAQQWVSGWRLNADSVLWGGHKVFMVKPEEPFQPVKEATQL

Variants of: B1
Test: raw area under fraction-flipped curve 0-4 h after induction (AUC4h, not background-subtracted), DNA-recorder readout of cleavage of the substrate (dimensionless); higher = more cleavage of the substrate by the protease variant
Conditions: temperature: 34 °C; time window: 0-4 h after rhamnose induction
Protocol: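 In vivo DNA recorder in E. coli TOP10(DE3) ΔrhaA at 34 °C. Each TEVp single-site mutant (parent TEVp 0) is paired with a single-site variant of the 7-mer TEVs (canonical ENLYFQ|S). The substrate sits between flexible linkers in a Bxb1-sfGFP-TEVs-SsrA fusion, so cleavage stabilises Bxb1 and speeds flipping of a recombination array, read by NGS. The value is the raw area under the fraction-flipped curve over 0-4 h after rhamnose induction (AUC4h), with ≥20 reads per time point. It is not background-subtracted; inactive controls average about 0.047.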
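Also: Bxb1 expression induced with 0.2% (w/v) L-rhamnose at OD600 near 0.5, cultures sampled hourly, flipped fraction per protease–substrate barcode pair counted by paired-end Illumina sequencing.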

Variant	area with substrate EALYFQS	area with substrate ECLYFQS	area with substrate EDLYFQS	area with substrate EGLYFQS	area with substrate EILYFQS	area with substrate ELLYFQS	area with substrate EMLYFQS	area with substrate EPLYFQS	area with substrate EQLYFQS	area with substrate ERLYFQS	area with substrate ETLYFQS	area with substrate EVLYFQS	area with substrate EWLYFQS	area with substrate EELYFQS	area with substrate EFLYFQS	area with substrate EKLYFQS	area with substrate ESLYFQS	area with substrate EYLYFQS	area with substrate EHLYFQS
F140E	0.0636	0.06	0.0618	0.0588	0.0484	0.0665	0.0743	0.06	0.0595	0.0602	0.0591	0.0622	0.0859						
W141Q	0.0419	0.0584	0.0683			0.0432				0.0617		0.0488	0.057	0.0699	0.0668	0.0579	0.0552	0.0611	
K142H	0.0962	0.108	0.12	0.112	0.123	0.0841	0.116	0.113	0.128	0.113	0.12	0.111	0.0843	0.132	0.0832	0.0776	0.096	0.115	0.126
K142M	0.0999	0.106	0.132	0.105	0.0882		0.0972		0.112	0.0957		0.097	0.0986	0.088	0.0262		0.114	0.0974	0.111
I145Y	0.0833	0.066			0.0439	0.066		0.064	0.07	0.0718		0.0658		0.0851		0.103	0.071		0.0682
K148I	0.105				0.119		0.105	0.138	0.0839	0.0943	0.14	0.0941		0.11			0.106		
K148P	0.0818	0.085	0.0906	0.0777	0.0647	0.0858	0.0794		0.0786			0.0741	0.0677			0.071	0.0787		
D149K	0.115	0.0836	0.0983		0.0683	0.049	0.103		0.103	0.0818		0.071	0.0776		0.0689	0.077	0.0801	0.0814	0.059
D149N	0.1	0.146	0.104	0.0709	0.0603		0.112	0.122			0.111	0.0944	0.0843	0.0886		0.117	0.0755	0.105	
Q151C	0.0833	0.0822	0.0931	0.0755	0.0791	0.079	0.0887		0.0832	0.118		0.0704	0.0504	0.129	0.0775	0.0857	0.0826	0.0697	0.0932
Q151W	0.0967	0.0899	0.105	0.072	0.0667	0.0824	0.092		0.107	0.0635		0.0955	0.0864	0.078	0.0814	0.0877	0.0802	0.0712	0.102
P155C	0.11	0.0833	0.0649	0.069	0.0806	0.088	0.097	0.0852	0.0962	0.0699	0.113	0.0585			0.0971		0.09		0.0951
P155Y	0.0495	0.0511	0.0817	0.0375	0.0574			0.0549		0.063		0.062		0.0548			0.0523	0.0484	0.0471
L156D	0.0288	0.0479		0.0324	0.0443	0.0559	0.0597		0.0501			0.0636	0.0469	0.107	0.0525	0.0647	0.0475		
L156I	0.134		0.114		0.0922	0.0976	0.0922	0.093		0.0794		0.0887	0.106			0.0917	0.0918		
L156V	0.108		0.0814	0.0896	0.0938	0.106	0.12	0.154	0.13	0.0964	0.121	0.111	0.0957	0.0806		0.133	0.102	0.112	0.124
T159L	0.11	0.115		0.0815	0.098			0.0983	0.132	0.113		0.0988		0.105			0.0926	0.144	0.129
R160H	0.0913	0.0727		0.0967			0.129			0.087		0.0849	0.0892	0.135		0.14	0.096	0.0965	
D161H	0.0768	0.0933	0.102		0.0541			0.0821	0.0706	0.0738		0.0511				0.0765	0.0833		
I164P	0.052		0.0479	0.0565	0.0451	0.05	0.0559	0.028	0.0475	0.0554		0.0545	0.0614		0.0435	0.0428	0.051	0.0504	0.0523
I164T	0.0943	0.0515	0.095	0.0707	0.0637		0.0926		0.0832	0.0885		0.0656	0.0739		0.0755	0.0841	0.0728		0.0861
I164W	0.0672	0.0454	0.0535	0.0631	0.055	0.0553	0.0626		0.0569	0.0592			0.0586						0.0585
I164Y	0.0535				0.0521	0.0582	0.0583		0.0636	0.0597		0.0368	0.0624	0.0648		0.0565	0.0596	0.0531	0.0575
V165F	0.0445	0.0541	0.0541		0.0462		0.0738		0.0301		0.0571						0.0552	0.0397	0.0532
V165S	0.0529	0.0459		0.0571		0.0383	0.0477		0.0739	0.0371		0.0449	0.0526	0.0564	0.0448	0.0525	0.0437	0.0413	0.0526
G166N	0.052	0.0417			0.0284		0.0495	0.0673	0.043					0.0569		0.0455		0.0412	
